Assay results taken from the RNAGym collection of RNA variant scans (doi:10.1093/nar/gkz1192).
The source gives no read counts; variants with many changes may rest on few reads.

B1: CPEB3 Ribozyme (parent)
chain: UAACAGGGGGCCACAGCAGAAGCGUUCACGUCGCAGCCCCUGUCAGAUUCUGGUGAAUCUGCGAAUUCUGCUGUAUAUCUC

Variants of: B1
Assay: self-cleavage, relative activity (ratio to wild type); higher = more cleavage; in vitro, sequencing
Summary of the method: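 For each CPEB3 ribozyme variant, relative activity is its cleaved/total read fraction divided by the unmutated ribozyme's. Barcoded error-prone PCR libraries were transcribed by T7 RNA polymerase (5 hours, 37°C) and held in DNase I for 15 min before an EDTA stop, with cleavage occurring throughout. Template-switching reverse transcription and Illumina sequencing were used to read the RNAs. A 5-read minimum applied, and results are the mean of three batches.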

Row | Variant | self-cleavage
1 | U1C U25C U49C U69A | 0.03
2 | A2G A5U A13U G24C G73A | 0.49
3 | U1G U49A A56G | 0.46
4 | A2C C23U A35U U41A U60C | 0.14
5 | U1C U25A U48C A64G U69C | 0.13
6 | A2G A3U A20G C32U C39G A56U | 0.06
7 | A2C U25A U78C | 0.54
8 | U1G A20U U41C A45U U49A U54C G73C | 0.09
9 | U1C U51G U74C | 1.25
10 | U1G C17G A20C G36A U69A | 0
11 | A2G A5G A18G U60C U67C G70A | 0.11
12 | U1C U26C A57U U74G | 0.19
13 | U1C U25A A35G U43A U48C U58C | 0.05
14 | U1C U43C A45G U51C U69A | 0.36
15 | U1C G33A U72G G73C U78C | 0.3
16 | A2G A3U A45U A56G U80C | 0.45
17 | U1C U26C U41C | 0.57
18 | U1C U41C A47G U66A | 0.32
19 | A2G A3U A13G A20U U54C U78C | 0.34
20 | U1C U25C A64G U72C | 0.34
21 | U1G U60C U69C | 0.16
22 | U1G A21G U25C U26C U48C G52U | 0.11
23 | U1G G10A U25C U26C U31C U43C A57G | 0.06
24 | A2G A5G A13U A15U U66C U76C | 0.3

Row | Variant | self-cleavage
25 | U1C U41C U60C A64G | 0.11
26 | A2G A3G U43A U49A | 0.96
27 | U1C U31C C32U U54C U66A | 0.06
28 | A2G A3C A77G | 1.12
29 | A2G A5G A28G U67C | 0.1
30 | U1C U26C A45G C50A | 0.11
31 | U1G U25C C40U A75G | 0.2
32 | A2C U31A A35U U41C G53A A75G | 0.14
33 | U1G A20U G33A | 0.3
34 | U1C U25C U58C | 0.05
35 | U1C U31C U66A | 0.39
36 | U1G A2G G33A | 0.44
37 | A2C G24A U41C U43C G52A | 0.23
38 | U1G A45G U54C A57G A65U U72C | 0.13
39 | U1C U31C C44A G46A U66C | 0.07
40 | A2C U26A A28U U54C C68G | 0.04
41 | U1C U31A A65U U66C | 0.27
42 | A2G A5G G7A G19U C27A U69C G70C | 0.26
43 | U1G A3U U58C | 0.63
44 | U1C U25A A75U U78C | 0.09
45 | U1C U66C U74C | 0.51
46 | U1C G33A U49C A65U | 0.05
47 | U1C U43A U60C | 0.22
48 | A2G A3G G52C U58C U78C | 0.24

Row | Variant | self-cleavage
49 | A2C C12U A15U A21G A45G U80C | 0.34
50 | U1C G36U U49C | 0.15
51 | U1C U43C U51C U66C U69A | 0.24
52 | U1C U25A A45G U48C | 0.06
53 | U1C U25C U72C U80C | 0.47
54 | U1C U43C A45G U48C U51C | 0.66
55 | U1G A64U U78C | 0.32
56 | U1C U54A U69C | 0.84
57 | U1C U58C U67C U72A | 0.17
58 | U1G A13U U26C U66C | 0.11
59 | U1C U25C U74C U80C | 0.53
60 | A2C A47G A77C | 0.96
61 | U1C U26C U31A U48C A65U | 0.08
62 | A2G A3G C27U U69A U74A | 0.14
63 | U1C U31A A64U | 0.09
64 | U1C U43C A47G A57G | 0.24
65 | U1C G61A U74C U78C | 0.81
66 | A2G A3U G9A U31A | 0.49
67 | U1C U43C A57G U58C | 0.07
68 | U1G G9U A13C A35G | 0.48
69 | U1C U25C U66C U72C | 0.47
70 | A2C A28G A35G U51A C59U U60C U66C | 0.18
71 | A2C A13G A65G | 0.2
72 | A2G A3G G53A U60C A65G A77G | 0.2

Row | Variant | self-cleavage
73 | U1C U43C U69C | 0.11
74 | U1C U31A U48C | 0.19
75 | U1C G24U A28G A65G A75G | 0.07
76 | A2C A15U A47G A56G | 0.37
77 | U1G U66C U72A | 0.18
78 | U1C U25C U31C | 0.41
79 | A2C A5U G33U A47G | 0.13
80 | U1C U31C A56G A64U U72C A77G U80G | 0.09
81 | U1C G33A G36A A64U | 0.06
82 | A2G A3U A18U | 0.77
83 | U1C U31G A35U U48C U69A | 0.16
84 | U1C G36C C44A A45G U51C A65G U78C | 0.12
85 | A2G A5G A13C A18G | 0
86 | U1C U31C U58C | 0.3
87 | U1C U31C U58G | 0.4
88 | U1C U41A A57G A65G | 0.07
89 | A2G A5G A45G | 0.57
90 | U1C U43A G61A | 0.6
91 | A2G A5G A56G | 0.13
92 | A2C A15G U51A | 0.79
93 | U1G U25A C40U A65G | 0.07
94 | U1C U31C U51G | 0.31
95 | U1C U31C U51A | 0.68
96 | U1C U41A U51C | 0.35

Row | Variant | self-cleavage
97 | U1C U43C A75U | 0.28
98 | A2C G46A A47G A65G U69C U76C | 0.06
99 | A2G A5G C12U A21U U66C | 0.1
100 | U1C U72C U80C | 1.18
101 | U1C U25C A28G U41C U72C U74A | 0.05
102 | A2G A5G A13U A18U U54C U60C C62U | 0.1
103 | U1C U41C U49C | 0.76
104 | U1G A3C A15G A28U A75C | 0.57
105 | A2C C12A U26C | 0.55
106 | A2C U43A U49A | 0.89
107 | U1C U43C U69C U74A | 0.15
108 | U1C U25A U54C A75U | 0.06
109 | A2C G19U C32G C34U A56G A77U | 0.11
110 | A2C A5U A15G G22A A35U C50A U60C | 0.05
111 | A2G A3G A15C A56G U58C U78C | 0.38
112 | U1G A45G U72C | 0.59
113 | U1G A47G U60A | 0.35
114 | U1C U60A G63A | 0.2
115 | U1C U31C U41C U58C U69C | 0.14
116 | U1G A2G A15G A35C U49C U60C | 0.33
117 | U1C U41C U72A U78C | 0.83
118 | U1C U48C C50A A65G U66C U69C | 0.05
119 | U1G A3G G9U U41G | 0.5
120 | U1C U41A U48C A56G | 0.07

Row | Variant | self-cleavage
121 | U1C U26C C37A U69C U72C U76A | 0.09
122 | U1C U25C U26G A35G U48C | 0.42
123 | A2G A3G A57U A77U | 0.39
124 | U1C G30A G52A | 0.26
125 | A2C U66C U67C U69C U74C | 0.45
126 | A2C A28U U54A U72C | 0.6
127 | A2G A3U A15G A64U U66C U69A U72G | 0.2
128 | U1C U25C A47G U60C U72C | 0.26
129 | U1G A18G U48C G55C U74A | 0.23
130 | U1C U25C A47G | 0.19
131 | U1C U69C U76C U78C | 0.68
132 | A2G A5G U31C U74C | 0.92
133 | A2G A5G U66A U76C | 0.52
134 | U1C U41A G73A A75G | 0.08
135 | U1C U25C U67C | 0.05
136 | A2G A5G A28G G52A U80A | 0.56
137 | U1G C11U U25C A45U | 0.07
138 | A2G A5G U60A U69C A77G U78C | 0.29
139 | U1C U41C A56U A75C U78C | 0.81
140 | U1C U25C U69A | 0.22
141 | A2G A5G U51C | 0.19
142 | U1G C12A A20G U48G G63A | 0.21
143 | A2G A3G G10A A15G A35U U54C U72G | 0.09
144 | U1G A13G A18C C50U U60A | 0.13

Row | Variant | self-cleavage
145 | U1C U26A U31C U60C U66C | 0.13
146 | U1C U31C A35U U43A U69A | 0.1
147 | U1C U26A C27A | 0.07
148 | U1C U41C A64U | 0.26
149 | A2C A47G U72A U78A | 0.28
150 | A2C A20C C27G U31C | 0.45
151 | A2G A5G U31C | 0.65
152 | A2C A3G A18G U25C A45U U66A A75U | 0
153 | U1C G61U U80C | 0.19
154 | U1C U41G U54C U58A A75G | 0.26
155 | A2C U41A U49A | 0.37
156 | U1C G33A A57G | 0.05
157 | U1C U41A U60C U74A A75G | 0.06
158 | U1C U25A G42A U58C U67C U78A U80C | 0.04
159 | U1G A3G A45G U51C A57G U72A | 0.5
160 | U1G G10U U26C U78C | 0.07
161 | U1C G33A A35U C39A A75U U80C | 0.16
162 | U1C G30A A45G | 0.06
163 | A2C C11U A28C U41C A45G U78A U80C | 0.04
164 | U1C U31C U41C | 0.66
165 | U1C U49A U54G U80A | 0.46
166 | A2C U74C U78C | 1.04
167 | A2C A13U A57G U78A | 0.89
